Assay results taken from PMC12136788.
This is one part of the list.

B1: chr9:3247878:3248185:-|CDS|ENSG00000080298|control|control|control (ssRNA)
RNA: GGGAGUUCUACAGUCCGACGAUCCGAAUAUAUGUUUUACUUAGUAGAACAUCGUGUUGCUCAGGCAACAGGAGAGACUCCUAUAGCAGUCAUGGGCGAGGUAAGAGAGGCUGAAAGAGCUGUGACCCACUGGGUUAUUAAAAACAACAGAGGAUUGAGCAUCA
B2: chr11:28036422:28036524:-|CDS|ENSG00000121621|unk|total|mutant (ssRNA)
RNA: GGGAGUUCUACAGUCCGACGAUCCAGCUCAAUGAUUCUCUCCGCAAAGAACUUCAGCCUAUUGUAUAUACACCAGAAGACUGCCGAAAAGCUUUUCAAAAUCCGUCUACAGUAACCUUAAUGAAACCAUCAUCAUUUACUACACAACAGAGGAUUGAGCAUCA
B3: ENSG00000124766:be:win_1401|CDS_3pUTR|ENSG00000124766|bound_else_gene|NA|bound_elsewhere_windowed (ssRNA)
RNA: GGGAGUUCUACAGUCCGACGAUCCUCCAACCUGGUUUUCACCUACUGAAGGGCGCGCAGGCAGGGAGAAGGGCCGGGGGGGGUAGGAGAGGAGAAAAAAAAAGUGAAAAAAAGAAACGAAAAGGACAGACGAAGAGUUUAAAGCAACAGAGGAUUGAGCAUCA
B4: chr22:17178789:17181576:-|three_prime_utr|ENSG00000093072|control|control|control (ssRNA)
RNA: GGGAGUUCUACAGUCCGACGAUCGUUGGAGAGUGAGAAAAAUACUUUCAUGGAAAUCUGGAAGAAGAGAUGGGAUAAGUUCAUAGCAGAUGUGGCUACAAAGUGAGGAGAAGCUAGCCAGCCCUCUACAAGCUGUCUUCUUGCCAACAGAGGAUUGAGCAUCA
B5: chr9:34892658:34893152:-|CDS|ENSG00000187791|control|control|control (ssRNA)
RNA: GGGAGUUCUACAGUCCGACGAUCCCAUCACAGGGCUCCUCUUGCCUAGAGGCUUUGUCCACAUCUAGUGUGUCUUUUAAGCAUAGUCAGGAUCUGGGCUCCCCGAAAUCCAAAGAGCUUUCACUGGCAUCUGUAACUCCAACACAACAGAGGAUUGAGCAUCA
B6: chr1:212100457:212100572:+|CDS|ENSG00000143476|unk|total|mutant (ssRNA)
RNA: GGGAGUUCUACAGUCCGACGAUCAGAAGAGGCUCUGUCUCCUCCGUCUCUCCCAAGCCACCUUCAUCUUUCAAGAUGUCGAUCCGAAACUGGGUGACCCGAACACCUUCCUCAUCACCACCCAUCACUCCACCUGCUUCGGAGCAACAGAGGAUUGAGCAUCA
B7: chr14:71589133:71589262:+|CDS|ENSG00000197555|unk|FALSE|unique (ssRNA)
RNA: GGGAGUUCUACAGUCCGACGAUCGAGAUAGGUGGAGAAGGGGAGAGGAAAAUCAGCCUUUCAAAAUCAAAUUCUGGCUCCUUUAGUGGAUGUGAAAGUGCCUCCUUUGAGUCUACCCUUAGUUCCCAUUGCACAAAUGCAGGACAACAGAGGAUUGAGCAUCA
B8: chr17:69016252:69016390:-|CDS|ENSG00000154258|control|control|control (ssRNA)
RNA: GGGAGUUCUACAGUCCGACGAUCUUUUCAAUAGCAUGUAAUACAAAACGGCUGAAUUGCUUUCCUGUCCUCCUGGAUGUCAUUAGCAAUGGACUACUUGGAAUUUUUAAUUCGUCAGAACACAUUCAGACUGACAGAAGCACACAACAGAGGAUUGAGCAUCA
B9: chr7:16784014:16784129:+|3pUTR|ENSG00000106537|msi1_unk|FALSE|overlapping (ssRNA)
RNA: GGGAGUUCUACAGUCCGACGAUCGAUAAUUUACUUGUAGUCUUUUAUGAUUACACCAAUGUAUUCUAGAAAUAGUUAUGUCUUAGGAAAUUGUGGUUUAAUUUUUGACUUUUACAGGUAAGUGCAAAGGAGAAGUGGUUUCAUCAACAGAGGAUUGAGCAUCA
B10: chr17:39604750:39604851:-|3pUTR|ENSG00000171532|msi1|FALSE|unique (ssRNA)
RNA: GGGAGUUCUACAGUCCGACGAUCAUUUUGGCGGGAGGGGAAGUGGAUUGAGAGGAAAGAGAGAGGCCAAGACAAUUUGUAACUAGAAUCCGUUUUUCCCUUUUCCUUUUUUUAAACAAACAAACAUACAAAAAAAAAAAAAAACAACAGAGGAUUGAGCAUCA
B11: ENSG00000198589:be:win_401|CDS|ENSG00000198589|bound_else_gene|NA|bound_elsewhere_windowed (ssRNA)
RNA: GGGAGUUCUACAGUCCGACGAUCUUGAAAAAGUGCUUGGGAAAAUUGAAAAAGUUGACAAUAUGAUAGCAGAUCUUUUGGUUGACAUGUUGGGAGUGCUGGCUAGCUAUAAUUUGACAGUUCGCGAGCUAAAGCUUUUCUUCACAACAGAGGAUUGAGCAUCA
B12: chr19:3610644:3612413:-|three_prime_utr|ENSG00000105298|control|control|control (ssRNA)
RNA: GGGAGUUCUACAGUCCGACGAUCAGGGGGGUCACCAUUGAGCCUGCCAUGGUGAGCUGAGGAGACACUGGGACAGGCUGGCCUAGGGUCCUGAUGCAACGGAGGGGGCGCUAGGGGCAUCUUUCGAGCACGAGGGUGGCCAGCCAACAGAGGAUUGAGCAUCA
B13: ENSG00000070961:be:win_2501|CDS|ENSG00000070961|bound_else_gene|NA|bound_elsewhere_windowed (ssRNA)
RNA: GGGAGUUCUACAGUCCGACGAUCACUUUACAAGCAUUGUUAAAGCAGUUAUGUGGGGACGAAAUGUCUAUGACAGCAUCUCAAAAUUCCUUCAGUUCCAACUUACUGUUAAUGUAGUAGCAGUGAUUGUUGCUUUUACGGGCGCAACAGAGGAUUGAGCAUCA
B14: chr15:25371268:25371377:-|CDS|ENSG00000114062|unk|FALSE|unique (ssRNA)
RNA: GGGAGUUCUACAGUCCGACGAUCCACAAUGUAUACUCUCGAGAUCCUAAUUAUCUGAAUUUGUUCAUUAUCGUAAUGGAGAAUAGAAAUCUCCACAGUCCUGAAUAUCUGGAAAUGGCUUUGCCAUUAUUUUGCAAAGCGAUGCAACAGAGGAUUGAGCAUCA

target: MSI1 full-length (mouse, UniProt Q61474 1-362); experiment: nsRBNS (natural sequence RNA bind-n-seq); RBNS binding buffer (assumed for nsRBNS): 25 mM Tris pH 7.5, 150 mM KCl, 3 mM MgCl2, 0.01% Triton X-100, 500 ug/ml BSA, 20 U/ml SUPERase-In, 4 C; UNK is unkempt and MSI1 is Musashi-1; names of the RNAs are library labels; protein concentration not given here; high values mean tight binding
Chain of UniProt Q61474 (Q61474 whole entry): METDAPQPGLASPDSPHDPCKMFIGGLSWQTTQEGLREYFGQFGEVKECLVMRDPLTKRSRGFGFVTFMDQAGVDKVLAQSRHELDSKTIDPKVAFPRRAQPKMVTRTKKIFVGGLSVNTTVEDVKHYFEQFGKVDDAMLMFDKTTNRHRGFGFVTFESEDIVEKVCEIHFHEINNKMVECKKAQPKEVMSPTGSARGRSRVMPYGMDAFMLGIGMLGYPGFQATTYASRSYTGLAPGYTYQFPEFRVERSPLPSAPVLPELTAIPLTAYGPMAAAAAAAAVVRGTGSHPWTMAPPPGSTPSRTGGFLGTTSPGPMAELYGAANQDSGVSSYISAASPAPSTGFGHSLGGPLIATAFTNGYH

Binder | binding signal
B1 | 0.72 enrichment R
B2 | 0.473 enrichment R
B3 | 0.758 enrichment R
B4 | 0.721 enrichment R
B5 | 0.372 enrichment R
B6 | 0.426 enrichment R
B7 | 0.572 enrichment R
B8 | 1.55 enrichment R
B9 | 12.3 enrichment R
B10 | 0.985 enrichment R
B11 | 0.316 enrichment R
B12 | 0.74 enrichment R
B13 | 0.314 enrichment R
B14 | 2.23 enrichment R
